Assay results taken from the supplement of paper PMC3334620.
Over roughly 33,000 sequences, “E-score (-0.5 to 0.5)” has its median near -0.054; the highest 2% begin near 0.35. Some of the results follow.

Molecular target: T1, Stb5 (UniProt P38699)
T1 sequence: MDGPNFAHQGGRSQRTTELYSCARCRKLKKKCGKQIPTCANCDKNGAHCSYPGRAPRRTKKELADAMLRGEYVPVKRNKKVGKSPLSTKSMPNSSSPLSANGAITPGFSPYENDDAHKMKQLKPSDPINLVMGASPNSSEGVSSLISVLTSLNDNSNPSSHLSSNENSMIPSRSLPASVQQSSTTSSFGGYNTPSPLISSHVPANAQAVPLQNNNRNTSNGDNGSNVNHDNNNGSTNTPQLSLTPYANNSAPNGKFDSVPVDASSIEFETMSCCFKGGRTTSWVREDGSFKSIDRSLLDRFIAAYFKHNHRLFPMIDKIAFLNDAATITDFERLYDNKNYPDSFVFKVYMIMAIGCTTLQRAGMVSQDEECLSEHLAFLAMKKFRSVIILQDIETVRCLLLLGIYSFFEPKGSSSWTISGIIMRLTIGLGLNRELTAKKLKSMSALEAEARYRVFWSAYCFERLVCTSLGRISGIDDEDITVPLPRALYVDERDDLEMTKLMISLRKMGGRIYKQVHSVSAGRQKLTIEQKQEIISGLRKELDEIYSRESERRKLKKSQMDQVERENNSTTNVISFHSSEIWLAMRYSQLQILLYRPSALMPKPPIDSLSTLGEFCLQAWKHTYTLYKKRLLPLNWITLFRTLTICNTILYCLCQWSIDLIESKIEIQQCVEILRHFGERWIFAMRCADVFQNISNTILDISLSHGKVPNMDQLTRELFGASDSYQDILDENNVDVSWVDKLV
Assay: PBM E-score (8-mer binding enrichment) (E-score (-0.5 to 0.5)); higher = stronger / more preferred TF binding; most listed sequences are background and not binding sites
Settings: protein concentration: 200 nM; construct: GST-full length
Description: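 Universal 'all 10-mer' protein binding microarrays (Agilent AMADID 015681) probed with GST-tagged S. cerevisiae TFs (full-length or DBD) made by in vitro transcription/translation (PURExpress), about 100-200 nM. Bound TF was detected with fluorescent anti-GST. Each ungapped 8-mer (which stands for itself and its reverse complement) is scored by the PBM enrichment score (E-score), a modified Wilcoxon-Mann-Whitney statistic from -0.5 to +0.5, computed with the Universal PBM Analysis Suite. Scale: above 0.35 generally sequence-specific binding.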

Sequence | PBM E-score
CGGCGGAG | 0.347
CTAAGGGC | -0.198
AAAGTAGA | -0.193
GCACTGGA | -0.271
GATCGCTA | 0.00336
CTCAGGGA | -0.334
GCCAATCC | 0.066
CCTGCTCG | -0.162
CTCGACGA | -0.243
ATGCGGCA | 0.156
GCAGGGGC | -0.22
GTCTGATA | -0.172
AGAAACCG | 0.0444
CGCTCTAC | -0.0196
ACTTTACA | 0.013
TATTGGAA | -0.121
AGGCTCGG | -0.00345
CAGCGCAC | 0.0378
ATTGCCGG | 0.408
CCCGACTA | 0.312
CGGATAAA | 0.29
ACAGGCAG | -0.204
ACACCTGA | -0.0816
AAGGAATC | -0.122
GTTAGCGA | -0.0414

Sequence | PBM E-score
ATGCTTCC | -0.157
ATTACCCG | 0.176
CTCCGCTC | 0.291
ACACGGCA | 0.16
TCAGCTCA | 0.0671
CATCAATG | -0.23
CTGTTCAC | -0.269
CACTGACA | -0.0323
AAAGTCTG | -0.338
CTCCGGTA | 0.316
AACTTCGT | -0.19
CCCACCCG | -0.0957
GTTTTTGA | -0.0784
ACGGCATC | 0.198
ACCCAATG | -0.177
ATGTACTC | 0.0834
GTTGTGCA | -0.178
CCGGTGGC | 0.291
AAGACGGT | 0.173
GCCTTCTA | -0.239
AGCCTCAA | -0.188
ACCTTATC | -0.0448
AAGGTTGT | -0.19
CCCGCACA | 0.305
TTAACTAA | 0.00651

Sequence | PBM E-score
TCCCCACA | -0.184
GCAAAGTA | -0.229
AACCTGGG | -0.188
AAATTCTA | -0.144
ACGGATCA | 0.104
CCGGTATA | 0.325
AGCGGCGA | 0.317
GCTTTGCC | -0.223
AGTCAATA | -0.0444
GCTTCCAA | -0.0857
CCTTACCC | -0.106
AATACCCT | -0.00882
CATACGAG | -0.166
CTTCTATA | -0.0427
GCGCAGGA | -0.0349
GGGTTCTA | 0.162
AAAGCTTG | -0.303
AGTGAGGA | -0.15
AAAAGCCC | 0.324
CGAGGATA | -0.0273
AAGCCTAT | -0.128
GAAGCGAC | -0.185
ATCGTGGA | -0.114
GCCTCAAA | 0.0102
AACCAAGG | -0.0901

Sequence | PBM E-score
AAAGGCGT | -0.0876
CTATGCCA | -0.262
GCTAAACA | -0.207
CTGCAGGC | -0.0955
CAACCACG | -0.127
GGTTATAA | 0.302
ATGCGCAA | -0.138
ATTATCCC | 0.0778
ACCAGCTA | -0.247
ACTGCCCA | -0.228
CGTGAAAG | -0.0126
CCATAGGG | -0.169
CTAAGTGC | 0.121
TGCAAGCA | -0.218
CGTCATTC | 0.0466
AGTCGTCG | -0.072
AGATGATC | -0.0845
GTCTGCGA | -0.247
CATGCCTC | 0.00542
AGCCTTCG | -0.226
CATGCTCA | -0.159
CTAGCGGC | 0.298
GTAGCTAA | -0.0293
CAGGCAGA | -0.19
AGAGGGTG | -0.177

Sequence | PBM E-score
GCCGCGTA | 0.209
AACTGGTC | 0.023
AGTAGGCC | -0.12
CTGAGCAA | -0.228
CCTTGCAC | -0.0796
GAGCGTAC | 0.00703
AGCGATTA | 0.0498
ATTGCCAC | -0.127
GAACGTTC | -0.114
AGCCGAAG | -0.0341
CAGGACCA | -0.183
ATCCATGA | -0.25
CCGTGGCC | 0.149
CTGAAAAG | -0.129
GCCGAGGC | 0.143
ATTTGGGC | -0.144
CGTAGTTC | -0.06
GGTTAAAC | 0.145
AGCGAGAT | -0.00166
CGAGCACG | 0.115
GCAAACCA | -0.0507
CTTAAGGC | 0.149
ATCGCTTC | -0.113
ACCCCGGT | 0.356
CCTACAGA | -0.203

Sequence | PBM E-score
ATCCTAGG | -0.0987
AATGGGGT | 0.0437
CTGGAGCC | 0.0227
AGGCTCCC | -0.187
CAGATCTC | -0.126
ATTTAGGC | 0.00693
ACCAAAAA | 0.0809
AGCACACC | -0.0624
AACCAAAC | 0.00959
GAGTGAAA | -0.212
GACGTCTC | -0.262
ATCGTGCC | 0.12
TCCAACCA | -0.185
ATCTAGGG | -0.337
CGACGAAC | 0.148
ACTTTCTG | 0.00797
CGCTTATA | 0.25
CGTCTTTC | 0.00627
CTGTGTCA | -0.0243
AGATGCCC | -0.144
AAGCAAAG | -0.143
GCAGTAGA | -0.2
CGCGATCA | 0.0825
CCTATTAC | -0.139
GCGAATGA | -0.0618

Sequence | PBM E-score
ACGTTTCT | -0.0761
AATCCAAC | -0.117
CTCTCCAC | -0.251
CACCTCTG | -0.263
ACGACCCT | -0.0137
AGGTGGTA | 0.165
ACTACCGC | 0.329
CAACCTGC | -0.00614
ACCGCGGC | 0.412
CCCTTCGG | 0.134
AAGGCTCG | -0.161
TGCCTCAA | -0.0793
AGACTCCC | -0.154
CACTCCAC | -0.333
AGACTCCT | -0.241
TCACGAAA | -0.0621
ATCTAGGC | -0.142
CGCCGGCC | 0.391
ACGCTTCG | -0.185
GTCCGCCA | 0.4
TTGCTAAA | -0.0669
AATGCTTG | -0.244
